Reference: paper PMC3486884 (PLoS Pathogens, 2012)

How the values were obtained:
[1] = Liposome dextran-FITC de-quenching; conditions: pH 5.15
[2] = test system: acidic endosomes in HeLa cells; assay: Intracellular acridine orange and lysotracker pH assays; type: cell-based

| SMILES | neutralization of acidic endosomes [2] | other results |
| --- | --- | --- |
| O=[N+]([O-])c1ccc(O)c([N+](=O)[O-])c1 [2,4-DNP, 2,4-di-nitrophenol] | – | FITC-fluorescence of acidic liposomes (in words) ([1]; 200 nm liposomes, dextran-FITC): dequenched |
| O=C(Nc1ccc([N+](=O)[O-])cc1Cl)c1cc(Cl)cc(Cl)c1O [TVB-1326] | readily neutralized acidic endosomes | – |
| O=C(Nc1ccc([N+](=O)[O-])cc1Cl)c1cc(Cl)ccc1OCCOc1ccccc1 [TVB-1329] | readily neutralized acidic endosomes | – |
| O=C(Nc1ccc([N+](=O)[O-])cc1Cl)c1ccccc1O [TVB-1332] | readily neutralized acidic endosomes | – |
| N#CC(C#N)=NNc1cccc(Cl)c1 [m-CCCP, carbonylcyanid-m-chlorophenyl-hydrazone] | – | FITC-fluorescence of acidic liposomes (in words) [1]: dequenched |
| O=C(Nc1ccc([N+](=O)[O-])cc1Cl)c1cc(Cl)ccc1O [niclosamide, 5-chloro-N-(2-chloro-4-nitrophenyl)-2-hydroxybenzamide, reference compound] | increased the vesicular pH | – |
